Experimental data: article PMC4336329 (PLoS ONE, 2015)
In all, about 310,000 compounds went through this assay and about 2,200 (0.71%) showed an effect of 50% or more. Effects have a minus sign here. Some of the results follow. Where a SMILES comes first, the peptide text is derived from it. [ ]: non-standard residue; d: D form. The star is where a group is joined. ξ: configuration not given here. Boc = CC(C)(C)OC(=O)*; NHBn = c1ccc(CN*)cc1; ξV = CC(C)C(N)C(=O)O

molecular target: human ether-à-go-go-related gene (hERG) potassium channel (human, UniProt Q12809); assay: primary screen, population patch clamp on CHO cells stably expressing hERG
Sequence (Q12809 whole entry, looked up): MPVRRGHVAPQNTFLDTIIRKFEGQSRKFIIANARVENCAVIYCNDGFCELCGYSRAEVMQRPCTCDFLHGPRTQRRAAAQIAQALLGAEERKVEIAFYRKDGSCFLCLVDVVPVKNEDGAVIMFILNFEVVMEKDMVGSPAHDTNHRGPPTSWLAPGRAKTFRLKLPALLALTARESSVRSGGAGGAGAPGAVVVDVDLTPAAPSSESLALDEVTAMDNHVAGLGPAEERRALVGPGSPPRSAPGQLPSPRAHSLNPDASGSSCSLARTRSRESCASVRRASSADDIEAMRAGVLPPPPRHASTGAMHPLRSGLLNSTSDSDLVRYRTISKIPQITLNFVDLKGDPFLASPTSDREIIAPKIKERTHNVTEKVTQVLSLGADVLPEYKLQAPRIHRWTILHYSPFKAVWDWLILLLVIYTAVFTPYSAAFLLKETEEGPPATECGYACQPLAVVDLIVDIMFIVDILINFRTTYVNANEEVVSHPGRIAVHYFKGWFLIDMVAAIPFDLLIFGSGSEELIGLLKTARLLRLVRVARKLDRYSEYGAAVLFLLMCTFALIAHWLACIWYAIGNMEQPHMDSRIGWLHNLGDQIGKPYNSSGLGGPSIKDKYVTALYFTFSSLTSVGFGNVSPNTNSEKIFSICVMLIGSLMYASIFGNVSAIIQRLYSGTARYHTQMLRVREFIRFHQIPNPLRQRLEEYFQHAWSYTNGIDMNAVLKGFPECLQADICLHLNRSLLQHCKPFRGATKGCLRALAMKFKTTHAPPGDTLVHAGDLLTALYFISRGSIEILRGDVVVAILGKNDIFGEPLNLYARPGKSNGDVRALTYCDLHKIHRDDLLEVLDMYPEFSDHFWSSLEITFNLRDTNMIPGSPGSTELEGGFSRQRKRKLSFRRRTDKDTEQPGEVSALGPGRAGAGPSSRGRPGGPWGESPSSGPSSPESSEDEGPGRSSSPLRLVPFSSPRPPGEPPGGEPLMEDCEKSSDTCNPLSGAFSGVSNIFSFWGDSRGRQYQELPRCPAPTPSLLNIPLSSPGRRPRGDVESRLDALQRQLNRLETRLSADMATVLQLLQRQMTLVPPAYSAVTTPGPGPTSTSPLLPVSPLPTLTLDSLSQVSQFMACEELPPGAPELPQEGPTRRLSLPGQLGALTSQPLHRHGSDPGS

SMILES | hERG current change (%, negative = inhibition) at 1uM [%]
CCn1c(CNC(=O)Cc2ccc(OC)cc2)nnc1SCC(=O)NC1CCCCC1 | -7.08
Cc1cc2oc(C(=O)NCc3ccc(S(N)(=O)=O)cc3)c(C)c2cc1C | 7.87
C=CCn1c(O)c(N=Nc2ccccc2)c2ccccc21 | 3.26
CCC(C)NC(=O)c1ccc2c(SCC(=O)O)c3c(nc2c1)CCCC3 (centres unmarked) | 3.13
COCc1cc(C)n(CC(=O)N2CCCC2)c(=O)c1C#N | 12
COc1ccc(NC(=O)COC(=O)CC2CCCC2)cc1Cl | 2.83
O=C(Nc1ccccc1C(=O)O)/C(=C/c1ccc(Cl)cc1Cl)NC(=O)c1ccco1 | 21.3
O=C(NNS(=O)(=O)c1ccccc1Cl)c1nn(-c2ccc(F)cc2)ccc1=O | 13.1
CC(C)C(NC(=O)CNC(=O)OC(C)(C)C)C(=O)NCc1ccccc1 (stereo not drawn) (Boc-Gly-[ξV]-NHBn) | 7.3
CC(C)(C)c1cc(NC(=O)c2c(F)cccc2Cl)n(-c2ccccc2)n1 | 14.8
CC(=O)c1cccc(N(C(=O)c2ccco2)C(C(=O)NC2CCCC2)c2ccc(N3CCOCC3)cc2)c1 (centres unmarked) | 13.1
O=C(Nc1c2ccccc2nc2ccccc12)C(Cl)(Cl)Cl | 1.68
COc1ccccc1CCNC(=O)Cn1ccc2cc(S(=O)(=O)N3CCC(C)CC3)ccc21 | 24.2
COCCn1c(=S)[nH]c2cc(C(=O)NCCc3ccc(OC)c(OC)c3)ccc2c1=O | 5.51
Cc1nc2ccc(Cl)cc2c(-c2ccccc2F)c1CC(=O)O | -0.722
CC(=O)c1ccc(-n2c(CCC(=O)O)ccc2-c2ccc(C)cc2)cc1 | 9.83
C/C(N)=C(/C#N)C(=O)CSc1nnnn1-c1ccccc1 | 13.9
Cn1c(CSCc2ccc(Cl)c(Cl)c2)nnc1SCC(=O)Nc1nccs1 | 2.81
O=C(CCC(=O)N(CC(=O)NC1CCCCC1)c1ccc(F)cc1)Nc1nccs1 | 1.74
COc1ccc(-c2cc(C(=O)Nc3cccnc3)no2)cc1OC | 16.2
CC1CCN(C(=O)CCCOc2cc(=O)n(C)c3ccccc23)CC1 | -12.2
Cc1ccccc1N1C(N)=NC(N)=NC1(C)C.Cl | 7.03

SMILES | hERG current change (%, negative = inhibition) at 1uM [%]
Cc1occc1C(=O)NNC(=O)c1ccccc1C(=O)O | 10.9
c1coc(CNc2c3c(nc4ccccc24)CCC3)c1 | -82
Cc1ccc(S(=O)(=O)NNC(=O)C(O)(c2ccccc2)c2ccccc2)cc1 | 7.47
CCOC(=O)c1[nH]c(C)c(C(=O)Nc2ccc(Cl)cc2)c1C | 5.71
CSc1nnc(C(C)(C)C)c(=O)n1/N=C/c1c(O)ccc2ccccc12 | 11
CC1CC(=O)Nc2ccccc2N1C(=O)COc1cc(Cl)ccc1Cl (centres unmarked) | 7.85
OC(c1nc2ccccc2[nH]1)C(O)C(O)C(O)c1nc2ccccc2[nH]1 (centres unmarked) | 11.4
COc1cccc(C(=O)/C=C/c2ccc(OCC#N)c(OC)c2)c1 | 14.9
COc1ccccc1N1CCN(C(=O)CN2C(=O)c3ccccc3C2=O)CC1 | 10.8
Cc1cnc(C(=O)Nc2ccc(N3CCCCC3)cc2)cn1 | 11.5
CC(=O)c1ccc(NC(=O)CN2C(=O)NC(C)(C3CCCCC3)C2=O)cc1 (centres unmarked) | 8.55
Cc1nc(C)n(CC(C)C(=O)N2CCN(S(=O)(=O)c3ccc(Cl)cc3)CC2)n1 (centres unmarked) | 1.01
O=C1CC(c2cccnc2)c2cc3c(cc2N1)OCO3 (centres unmarked) | 26.7
Cc1ccccc1OCC(=O)N/N=C/c1cccc2cccnc12 | 12.5
O=C(CN1C(=O)c2ccccc2S1(=O)=O)NCCSCc1ccccc1Cl | 4.36
Cc1cc(C)n2nc(CC(=O)NC3CCCCCCC3)nc2n1 | -36.9
CN(C)S(=O)(=O)c1cccc(NC(=S)NC(=O)C2CCCCC2)c1 | 5.37
Cc1ccc(C)c(N2CN(Cc3ccco3)CNC2=S)c1 | 4.28
O=C1CCC(=O)c2oc3ccccc3c2N1 | 7.22
Cc1oncc1C(=S)Nc1ccccc1 | 12.9
O=C(CSc1nnc(-c2cccnc2)o1)Nc1ccc(Cl)cc1 | -0.351
COc1cc(F)c(S(=O)(=O)N2CCOc3ccccc32)cc1OC | 10.9
